Experimental findings from article PMC6919601, “Identification of Plasmodium dipeptidyl aminopeptidase allosteric inhibitors by high throughput screening” (PLoS ONE, 2019) are described below.

About 230 (0.21%) of roughly 110,000 compounds showed an effect of 50% or more. The list shows a part of the results.
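Further: 30 min substrate incubation versus DMSO and 10 µM JCP410 controls.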

The target of the assay is DPAP1 (Plasmodium falciparum, UniProt Q8IIJ9). The assay is described as follows: primary screen, percent inhibition; read by cleavage of a fluorogenic dipeptide substrate; higher = more effect of the substance. On the set-up: species or system P. falciparum D10 trophozoite lysates; single well.
Sequence of DPAP1 (Q8IIJ9 whole entry, looked up): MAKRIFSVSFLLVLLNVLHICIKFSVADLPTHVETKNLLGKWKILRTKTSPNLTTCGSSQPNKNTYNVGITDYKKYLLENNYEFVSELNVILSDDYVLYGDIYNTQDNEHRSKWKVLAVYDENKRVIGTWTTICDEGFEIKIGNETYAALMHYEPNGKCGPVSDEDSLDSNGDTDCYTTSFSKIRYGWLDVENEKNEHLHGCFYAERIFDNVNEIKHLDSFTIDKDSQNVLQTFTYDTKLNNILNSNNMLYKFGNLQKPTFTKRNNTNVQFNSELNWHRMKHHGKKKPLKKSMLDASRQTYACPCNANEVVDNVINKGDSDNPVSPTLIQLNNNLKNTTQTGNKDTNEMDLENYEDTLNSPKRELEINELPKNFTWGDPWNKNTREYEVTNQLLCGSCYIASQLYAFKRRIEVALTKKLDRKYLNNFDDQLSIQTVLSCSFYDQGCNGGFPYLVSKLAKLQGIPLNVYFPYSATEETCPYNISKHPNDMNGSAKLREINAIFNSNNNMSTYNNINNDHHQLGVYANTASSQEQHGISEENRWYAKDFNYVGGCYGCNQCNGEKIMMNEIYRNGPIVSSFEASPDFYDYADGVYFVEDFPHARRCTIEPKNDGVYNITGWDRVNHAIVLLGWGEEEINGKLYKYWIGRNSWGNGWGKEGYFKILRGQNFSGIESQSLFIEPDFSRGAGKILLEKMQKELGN
Take `CN1CCN(Cc2csc3c2CCCC3)CC1`: the “% Inhibition @ 10 uM” value was -6.67%.

With `Cc1onc(-c2ccccc2)c1C(=O)Nc1nnc(C(C)(C)C)s1`, the “% Inhibition @ 10 uM” value stood at 2.09%. The result for `N#Cc1c(-c2ccco2)cc(-c2ccc(F)cc2)nc1N` reads 22.7%; that for `Cc1nc(=O)c(-c2ccccc2)c(C)n1C`, 3.82%.

Regarding `CCN1C(=O)N/C(=C/c2cn(C(C)C)c3ccccc23)C1=O`, the “% Inhibition @ 10 uM” value is on record as -3.87%. The result for `N#CC1=C(N)N(c2c(F)cccc2F)C2=C(C(=O)CCC2)C1c1ccc(F)cc1` (stereo not drawn) reads 1.82%; that for `COc1ccc(-c2cn3c(n2)sc2cc(C(=O)NC4CCN(Cc5ccccc5)CC4)ccc23)cc1`, 9.55%.

Regarding `COc1cccc(N2CCN(C(=O)N[C@@H](CC(C)C)C(=O)NCC#N)CC2)c1`, the “% Inhibition @ 10 uM” value is -6.98%. For `COc1ccc(N(CC(=O)N(C)Cc2ccccc2)S(C)(=O)=O)cc1OC` the value was 0.873%; for `COc1cc(OC)c(C(=O)N(Cc2nc(-c3ccccc3)no2)C(C)C)cc1OC`, -1.24%. For `CCN1C(=O)N/C(=C/c2cc(C)n(Cc3ccccc3)c2C)C1=O` the value was 1.92%; for `O=C(CNS(=O)(=O)c1cccs1)NCc1ccccc1`, -2.12%. The result for `Clc1ccc(CN2CCN(C/C=C/c3ccccc3)CC2)cc1` reads -2.14%. Take `Cc1c(CC(=O)NCc2ccccc2)c(=O)oc2cc(O)ccc12`: the “% Inhibition @ 10 uM” value is on record as -4.39%.

Turning to `COc1ccc(C2CC(=O)C(/C=N/CCO)=C(O)C2)cc1OC` (stereo not drawn), the “% Inhibition @ 10 uM” value is listed as -2.64%.

Take `Cc1cc2nc(C)n(CCCNC(=O)NC3CCCCC3)c2cc1C`: the “% Inhibition @ 10 uM” value is given as -4.07%.

As for `Nc1cccc2c1C(=O)c1cccc(NC(=O)c3ccccc3)c1C2=O`, the “% Inhibition @ 10 uM” value came to 0.912%. The result for `CCOc1cc(/C=C2/SC(Nc3cccc(C(=O)O)c3)=NC2=O)cc(Br)c1OC` reads -3.26%; that for `COc1ccc(Br)cc1CNC(=O)Nc1cccs1`, -1.11%. For `COC(=O)C1=C(NC(=O)c2ccccc2Br)CCS1` the value was 4.95%; for `Cc1nnc(NC(=O)c2ccc(F)cc2F)s1`, 2.77%. The result for `C=CCc1cccc2cc(C(=O)NC(C)c3ccccc3)c(=O)oc12` (stereo not drawn) reads -3.09%; that for `COc1ccc(Br)cc1CNC1=NS(=O)(=O)C(c2ccc(C)c(C)c2)=C1C`, -4.68%; that for `Cc1cc(C)nc(Sc2ncnc3sc4c(c23)CCCC4)n1`, 9.61%. Consider `CCCOc1ccc(C(CC(=O)O)NC(=O)c2ccc(OC)cc2OC)cc1` (stereo not drawn), for which the “% Inhibition @ 10 uM” value amounted to 2.7%. The result for `O=C(Nc1cc(Cl)ccc1Cl)c1cccc(Cl)c1` reads -4.87%; that for `CCCCCn1c(=O)c(C(=O)NC(C)c2ccccc2)c(O)c2ccccc21` (stereo not drawn), 1.4%; that for `O=C(CNCc1cccnc1)Nc1ccc(OC(F)(F)F)cc1`, 5.25%.

Consider `C=CCN1C(=O)/C(=C/c2ccc(Cl)cc2Cl)C(=O)NC1=S`, for which the “% Inhibition @ 10 uM” value was 4.6%. For the compound `COc1ccccc1N1C(=O)CC(Nc2ccc(C)cc2)C1=O` (stereo not drawn), the “% Inhibition @ 10 uM” value is listed as -2.34%. The result for `Cc1ccc(NC(=O)c2ccc(C)c(C)c2)nc1` reads -6.66%; that for `COc1ccccc1CNC(=O)Cn1ncc2c3ccccc3nc-2c1O`, 3.72%; that for `COc1cccc(-c2cc(C(=O)O)c3cc(C)ccc3n2)c1`, -3.92%. For `Cc1noc(/C=C/N(C)C)c1S(=O)(=O)N1CCCC(C(=O)NC(C)c2ccccc2)C1` (stereo not drawn) the value was -4.69%; for `Clc1ccccc1OCc1nnc(-c2ccccc2Cl)o1`, 2.14%; for `CCN(CC)CCCOc1ccccc1OC`, -2.54%. The result for `Cc1ccc2c(c1)-c1onc(C(=O)N(C)CCC#N)c1CO2` reads -4.99%. For `CC(C(=O)Nc1ccccn1)c1cccc(C(=O)c2ccccc2)c1` (stereo not drawn), the “% Inhibition @ 10 uM” value is -3.34%. For `CCCCCOc1ccc(C2C(C(=O)OCCOC)=C(C)N=C3SCCC(=O)N32)cc1` (stereo not drawn) the value was 2.24%; for `O=C(O)C1CC(=O)N(CCc2ccccc2)/C(=N\c2ccccc2)S1` (stereo not drawn), 0.924%. The result for `CCC1CCCCN1C(=O)c1cnn(-c2ccc(C)cc2)c1-n1cccc1` (stereo not drawn) reads -8.6%. The result for `O=c1oc2ccccc2cc1C1=Nn2c(nnc2-c2cccc(F)c2)SC1` reads -2.38%. On to `O=C(/C=C/c1ccccc1Cl)NC1CCS(=O)(=O)C1` (stereo not drawn), for which the “% Inhibition @ 10 uM” value was -2.35%. With `O=C(Nc1ccc2c(c1)OCCO2)c1cnccn1`, the “% Inhibition @ 10 uM” value is -3.92%. For `Cc1ccc(NC(=O)CSc2nc(C)c3c(n2)CCCC3)cc1` the value was 47.6%; for `CC(C)(C)c1cc(CN2CCN(c3ccc([N+](=O)[O-])cc3)CC2)cc(C(C)(C)C)c1O`, -1.98%. For `O=C1CC(c2cccnc2)Nc2ccc3ccccc3c21` (stereo not drawn) the value was -2.64%; for `CC(C)CC(NC(=O)c1ccco1)C(=O)O` (stereo not drawn), 4.54%. The result for `CCN1C=C(Cc2cccs2)C2=C(C1)C(c1cccs1)C(C#N)=C(N)O2` (stereo not drawn) reads 2.32%. With `O=C(Cc1ccccc1F)Nc1ccccn1`, the “% Inhibition @ 10 uM” value was determined as 0.907%. As to `Cc1onc(-c2ccccc2)c1C(=O)NC(C)c1ccccc1` (stereo not drawn), the “% Inhibition @ 10 uM” value is reported as -2.6%. In the case of `CC(C)CCC(=O)N[C@@H](CC1CCCCC1)C(=O)NCC#N`, the “% Inhibition @ 10 uM” value was -3.7%. For `N#Cc1c(-c2ccc(Br)cc2)cc(-c2ccccc2)nc1SCc1ccccc1` the value was -3.77%; for `CCOC(=O)C1=C(CN2CCC3(CC2)OCCO3)NC(=O)NC1c1ccc(F)cc1` (stereo not drawn), -2.83%. The result for `OC1(c2ccc(Br)cc2)CCN(Cc2cccc(Cl)c2)CC1` reads -3.6%.

`COc1ccccc1OCc1nc(C#N)c(NCc2ccc(F)cc2)o1`: the “% Inhibition @ 10 uM” value worked out at 2.38%. For `Cc1ccc(OCCSc2ncnc3[nH]cnc23)cc1` the value was 1.92%; for `O=C1c2ccccc2S(=O)(=O)N1C1c2ccccc2Oc2ccccc21`, -5.7%; for `O=S1(=O)C=CC(N2CCOCC2)C1` (stereo not drawn), 3.98%. On to `CC1=C(C(=O)Nc2cc(C)ccn2)C(c2ccccc2C)C2=C(O)CCCC2=N1` (stereo not drawn), for which the “% Inhibition @ 10 uM” value is given as -1.3%.

For the compound `COc1ccc(-c2cc(C(=O)NC3CCCCCCC3)c3ccccc3n2)cc1OC`, the “% Inhibition @ 10 uM” value is listed as -3.77%. For the compound `C=CCOc1ccc(/C=C2\SC(=N)N(c3nccs3)C2=O)cc1OCC`, the “% Inhibition @ 10 uM” value was determined as 4.05%.

On to `Cc1nn(Cc2ccc(F)cc2)c(C)c1NC(=O)C1=CC(c2ccco2)=NS(=O)(=O)N1C`, for which the “% Inhibition @ 10 uM” value is on record as -2.84%. For `O=S1(=O)CC(O)C(N2CCCCC2)C1` (stereo not drawn) the value was 5.92%; for `O=c1nc2s/c(=C\c3ccco3)c(=O)n2nc1Cc1ccccc1`, -7.15%; for `CCCCC(NC(=O)Cc1ccccc1)C(=O)O` (stereo not drawn), -2.87%.

In the case of `CN(CC(=O)Nc1ncc(Br)s1)S(=O)(=O)c1cccc2cccnc12`, the “% Inhibition @ 10 uM” value is -0.692%.

`Cc1cc(Sc2ccc(Cl)cc2)ncn1`: the “% Inhibition @ 10 uM” value is recorded as -4.08%. The result for `CCCCOC(=O)CSc1nc2cc(OCC)ccc2[nH]1` reads 1.88%; that for `Cc1ccc(CNC(=O)c2ccc(C/N=c3\c(O)c(O)\c3=N/C3CCCCC3)cc2)cc1`, 1.15%. For `COc1ccc(NC(=O)C2CCN(S(=O)(=O)c3c(C)cc(C)cc3C)CC2)cc1Cl` the value was 2.01%; for `Brc1cc(CN2CCOCC2)c(-c2ccccc2)s1`, 3.8%. For `COc1ccc(C2CC(=O)C3=C(C2)NC(=O)CC3c2cc(OC)c(OC)c(OC)c2)cc1OC` (stereo not drawn) the value was 0.205%. `CCOC(=O)N1CCC(NS(=O)(=O)c2cc(-c3cc(C)no3)ccc2OC)CC1`: the “% Inhibition @ 10 uM” value is reported as 0.163%.

`Cc1cc(=O)n2nc(N3CCC(C(=O)NCc4ccccn4)CC3)sc2n1`: the “% Inhibition @ 10 uM” value stood at 4.55%.

Take `CCc1cc2c(cc3c(=O)n(CC(=O)N4CCCCCC4)nc(CC)n32)s1`: the “% Inhibition @ 10 uM” value was 3.29%. For `Cc1ccccc1CNC(=O)Cn1ncn2cccc2c1=O` the value was -7.87%; for `CC1CCCC(NC(=O)c2ccc3c(SCC(=O)O)c4c(nc3c2)CCC4)C1C` (stereo not drawn), -0.495%. For `Cc1cc(C)c(S(=O)(=O)N(C)CC(=O)Nc2ccc(C(F)(F)F)cc2)c(C)c1` the value was -2.29%; for `COc1ccc(C2CC(c3ccc(C(C)C)cc3)Nc3nnnn32)cc1OC` (stereo not drawn), 3.45%. For `OCCn1c2ccccc2c2cc(Cl)ccc21` the value was 0.135%. Consider `Nc1nc2ccc(Cc3nc4ccccc4o3)cc2s1`, for which the “% Inhibition @ 10 uM” value is -4.78%. In the case of `CCOc1ccc(CNCc2c(C(=O)O)n(CC)c3cc(C)ccc23)cc1`, the “% Inhibition @ 10 uM” value is reported as 11.8%. `O=C1c2oc3ccccc3c(=O)c2C(c2ccc(O)cc2)N1c1nncs1` (stereo not drawn): the “% Inhibition @ 10 uM” value was found to be 2.1%.

Take `COc1ccc(-n2cccc2/C=C(\C#N)c2nc3ccccc3[nH]2)cc1`: the “% Inhibition @ 10 uM” value is recorded as -3.06%. For `CCOc1cc(Cl)c(C(C)NC(=O)c2ccccc2OC)cc1OCC` (stereo not drawn) the value was -1.28%.

With `Cc1cc(OCC(=O)Nc2sc(C)c(C)c2C(N)=O)c(C(C)C)cc1Br`, the “% Inhibition @ 10 uM” value is reported as -5.32%. For `CN(CC(=O)NCC1CCCO1)S(=O)(=O)c1ccc2[nH]c3c(c2c1)CCCC3` (stereo not drawn) the value was -5.01%; for `CCC(Sc1nc2nnc(C)c-2c(N)n1-c1ccc(C)c(Cl)c1)C(=O)NCCOC` (stereo not drawn), 27.5%. For `COc1ccc2c(c1)C(=O)/C(=C/c1ccc(C)cc1)CC2` the value was 3.63%; for `COc1cc(C(=O)NC(C)C(=O)N2CCCCC2)nc2ccccc12` (stereo not drawn), -8.28%; for `CCNC(=O)C1CCN(S(=O)(=O)c2ccc(C)cc2)CC1`, -1.92%. For `O=C(c1ccc(Cl)c(Cl)c1)N1CCN(c2cccc(Cl)c2)CC1` the value was 1.84%.

On to `CC1CCCCN1CN1C(=O)C(=O)c2ccccc21` (stereo not drawn), for which the “% Inhibition @ 10 uM” value was -1.84%. For `CN1CCC(N(C)Cc2ccc([N+](=O)[O-])cc2)CC1` the value was -3.65%; for `O=C1/C(=C/c2ccc(F)cc2)Cc2ccccc21`, 0.287%; for `CC(=O)c1cc(-c2ccccc2)n(CC(=O)N2CCN(Cc3ccccc3)CC2)c1C`, -0.176%.

As to `Cc1ccc(NC(=O)CN2C(=O)S/C(=C\c3ccc(C(=O)O)cc3)C2=O)cc1Cl`, the “% Inhibition @ 10 uM” value is listed as -2.39%. `Cc1ccc(OCC(O)CNC(C)C)cc1` (stereo not drawn): the “% Inhibition @ 10 uM” value is -2.51%.

`c1ccc(CCN2CCC(NC3CC3)CC2)cc1`: the “% Inhibition @ 10 uM” value is -5.11%. The result for `CN(c1cccc(NC(=O)CCSc2ccc(Cl)cc2)c1)S(C)(=O)=O` reads -5.13%; that for `CCOc1ccc2c(C(F)(F)F)cc(=O)oc2c1C`, 2.89%.
